# Test results from patent publication US12551573B2, “Compositions and methods for the targeting of PCSK9” (Scribe Therapeutics Inc., priority 2022, dated 2026).
# Residue numbers refer to the chain shown, from its start.
# B1: DOMAIN_5060 (protein, listed as Callithrix sp.)
# chain: GENLESRVTLGSPAAESQELLTFKDVSVDFTQEEWGQLAPAHRNLYREVMLENYGNLVSVGYQLSKPGLISQLEKGEEPWL
# B2: DOMAIN_4199 (protein, listed as Macaca mulatta)
# chain: MELLSFEDVAMYFTREEWGHLDWGQKDLYRDVMLENYRNMVLLGFQFPKPEVICQLENWDEQWILDLPRAGSRKASGSACP
# B3: DOMAIN_4534 (protein, listed as Callithrix sp.)
# chain: CFSGEERMAAGHPPRWPQELVTFEDVSVDFSQEEWELLDPAQKELYREVTLENYRNLVSLEALKNPCADAGMEEGPFSTAH
# B4: DOMAIN_4463 (protein, listed as Callithrix sp.)
# chain: MLQTAWPQRLSRNLWFQESVAFEDVAVYFTQNQWASLDPAQRALYREVMLENYANVTSLVAFPFPKPALISHLEKGEAPWG
# B5: DOMAIN_3803 (protein, listed as Macaca mulatta)
# chain: MNMEGLVMFQDLFIHFSQEEWECLDAAQKDLYRDVMMENYSSLVSLGLCIPKPDVISLLEQGKEPWMVSRDVLGGWCPDSE
# B6: DOMAIN_4705 (protein, listed as Callithrix sp.)
# chain: B5 chain with F13S, H15D, D25N, A26P, V44L, C49S, V72I, S80R, E81L
# B7: DOMAIN_4394 (protein, listed as Callithrix sp.)
# chain: PVRGPGEARPSRKRGRRPRALKFVDVAVYFSSEEWGCLRPAQRALYRDVMRETYGHLGALGCAGPKPALISWLERNTDDWE
# B8: DOMAIN_3691 (protein, listed as Macaca mulatta)
# chain: MDSVAFEDVAVNFTQEEWALLSPSQKNLYRDVMLEAFRNLASVGIQWKDQDTENLYQNLGIKLRHMRAHAGHTRSECGGEW
# B9: DOMAIN_4425 (protein, listed as Callithrix sp.)
# chain: TMTTVSSTARPQESVAFDDVAVYFTKKEWAIMVPDQRALYRDVMLENYEAVAFVVPPTSKPALISHLEQGKEPCFTQPQGV
# B10: DOMAIN_4515 (protein, listed as Callithrix sp.)
# chain: MAAGQPEARPQVSLTFEDVAVLFTRDEWRKLAPSQRNLYRDVMLENYRNLVSLGLPFTKPKVISLLQQGEDPWKVEKDCFG
# B11: DOMAIN_4184 (protein, listed as Macaca mulatta)
# chain: MVTFEDVAVHFTKTEWTGLSPAQRALYRSVMLENFGNLTALGYPVPKPALISLLEGGDMAWGLEAQDDAPAERTKNICKGR
# B12: DOMAIN_4185 (protein, listed as Macaca mulatta)
# chain: B11 chain with G80V, R81I
# B13: DOMAIN_19804 (protein, listed as Callorhinus ursinus)
# chain: QAEVTFEDVAVLFSREEWGRLGPAQRGLYRDVMLETYRNLVSLGAGPAGPKPGVITQLERGDEPWVLDAQGAKGKERLRVS
# B14: DOMAIN_4046 (protein, listed as Macaca mulatta)
# chain: MATALTDPAQVSVTFDDVAVTFTQEEWGQLDLAQRTLYQEVMLENCGLLVSLGCPVPRPELIYHLEHGQEPWTRKEDLSQD
# B15: DOMAIN_4978 (protein, listed as Callithrix sp.)
# chain: MAAAALRLPAQGTVTFEDVAVKFSQEEWSILTEAQRCLYHDVMLENLALISSLGCWYGAKDETPSKQTLSIQQQSPLRSHW
# B16: DOMAIN_4574 (protein, listed as Callithrix sp.)
# chain: MFQDSVAFEDVAVTFTQEEWALLDPSQKTLYRDVMQENFRNLASVGKKWKAQNIYVEYKNLRRNLRNLMGKRLFESKEDHQ
# B17: DOMAIN_221 (protein, listed as Pan paniscus)
# chain: MMFQDSVAFEDVAVTFTQEEWALLDPSQKNLYRDVMQETFRNLASIGKKWKPQNIYVEYENLRRNLRIVGERLFESKEGHQ
# B18: DOMAIN_18258 (protein, listed as Physeter macrocephalus)
# chain: KEAFVAFGDVAVDFTQEEWRLLSPAQRTLHREVMLETYNHLVSLEIPFSKPKLISQLERGEEPWIEERQRPLGLCPASRPT
# B19: DOMAIN_4580 (protein, listed as Callithrix sp.)
# chain: DSVAFEDVAVNFTQEEWALLDRSQKKLYREVMQETLRNLTSIGKTWSNQNAEERHQNPRRNLRRLIGERLFQSKESHQHAE
# B20: DOMAIN_4129 (protein, listed as Macaca mulatta)
# chain: MMTAVSLTTRSQESVAFEDVAVYFTTKEWAIMVPAERALYRDVMLENYEAVAFVVPPTSKPALVSHLEQGKESCFIRPQGV
# B21: DOMAIN_4748 (protein, listed as Callithrix sp.)
# chain: MINYQTPVSFRDVVVGFTQEEWHRLNPTQRALYRDVMLETYSNLVSVGYEGTKPDVILRLEQEEAPWIGEAACLGCHCWED
# B22: DOMAIN_4751 (protein, listed as Callithrix sp.)
# chain: B21 chain with E80G, D81K
# B23: DOMAIN_4749 (protein, listed as Callithrix sp.)
# chain: B21 chain with E80G, D81I
# B24: DOMAIN_3781 (protein, listed as Macaca mulatta)
# chain: MAHFQGSVTFEDVAIAFSQQEWESLDSSQRGLYRDVMLENYRNLVSMGHSLSKPHVIALLERWKEPKVTERKDGRRWCTDL
# B25: DOMAIN_5031 (protein, listed as Callithrix sp.)
# chain: MAHMAFRDVAVDFTQDEWRLLSPAQRTLYREVMLENYSNLVSLGISFSKPEIITQLEQGKETWREEKKCPPATCPDPEPEL
# B26: DOMAIN_3759 (protein, listed as Macaca mulatta)
# chain: MGLLTFRDVAIEFSLEEWQCLDTAQKNLYRNVMLENYRNLAFLGVAVSKPDLIICLEKDKEPWNMKRHEMVDEPPGLTVSN
# B27: DOMAIN_4665 (protein, listed as Callithrix sp.)
# chain: MTPGPPGSLEMEPLTFKDVAIEFCLEEWQCLDTAQQDLYRNVMLENYRNLVFLGIAVSKPDLITCLEQGKVPWNRKRHEMV
# B28: DOMAIN_4589 (protein, listed as Callithrix sp.)
# chain: MDTVALEDVAVNFTQEEWALLGPSQKKLYRDVMQETIRNLDCIKMISEDQNIEDQYKNPKKNLRCRMAERLSESKDNSQCG
# B29: DOMAIN_4036 (protein, listed as Macaca mulatta)
# chain: MNVEVVKVMPQDLVTFKDVAIDFSQEEWQWMNPAQKHLYRSMMLENYQSLVSLGLCISKPCVISLLEQGREPWEMTSEMTR
# B30: DOMAIN_4030 (protein, listed as Macaca mulatta)
# chain: MSLGSELFRDVAIVFSQEEWQCLAPAQRDLYRDVMLETYNNLVSLGLAISKPDVISFLEQGKEPWMVERVVSGGLCPVLES
# B31: DOMAIN_4921 (protein, listed as Callithrix sp.)
# chain: B30 chain with S2P, C22W, N40S, S72A, V78E, L79A, S81L
# B32: DOMAIN_4922 (protein, listed as Callithrix sp.)
# chain: B30 chain with S2P, C22W, N40S, S72A
# B33: DOMAIN_3782 (protein, listed as Macaca mulatta)
# chain: MAHFQGSVTFEDVAIAFSQQEWESLDSSQRGLYRDVMLENYRNLVSMAGHSLSKPHVIALLERWKEPKVTERKDGRRWCTD
# B34: DOMAIN_2380 (protein, listed as Pongo sp.)
# chain: MIQAQESITLEDVAVDFTWEEWQLLGAAQKDLYRDVMLENYSNLVAVGYQASKPDALFKLEQGEQPWTTEDGIHSGACSDM
# B35: DOMAIN_3760 (protein, listed as Macaca mulatta)
# chain: MEPLKFRDVAVEFSLEEWQCLDTIQQNLYRNVMLENYRNLVFLGIAVSKPDLITCLEQEKEPWTRKRHRMVAKPVTCSHFA
# B36: DOMAIN_5029 (protein, listed as Callithrix sp.)
# chain: MAFRDVAVDFTQDEWRLLSPAQRTLYREVMLENYSNLVSLGISFSKPEIITQLEQGKETWREEKKCPPATCPADPEPELCL
# B37: DOMAIN_4722 (protein, listed as Callithrix sp.)
# chain: MALRSVIFSDISIDFSPEEWEYLDLEQKDLYRDVMLENYSNLVSLGCFISKPDVISLLEQGKEPWKVVRKRRRQYPDLETK
# B38: DOMAIN_4126 (protein, listed as Macaca mulatta)
# chain: MLQTAWRQEPVTFEDVAVYFTQNEWASLDSVQRALYREVMLENYANVASLAFPFTTPVLVSQLEQGELPWGLDPWEPMGRE
# B39: DOMAIN_4461 (protein, listed as Callithrix sp.)
# chain: B38 chain with A26T, S30P, L68R, M78V
# Test system: HBEGF locus
# Type: cell-based, human
# Conditions: high-throughput screen of dXR repression of the HBEGF gene; change in abundance of each domain in the library before and after diphtheria toxin selection
row,Molecule,Log2 (fold change)
1,B1,2.6043
2,B2,2.6844
3,B3,2.6242
4,B4,2.9717
5,B5,3.0165
6,B6,3.5232
7,B7,3.8103
8,B8,2.8393
9,B9,2.9741
10,B10,4.2166
11,B11,3.2397
12,B12,2.9116
13,B13,3.8217
14,B14,2.7847
15,B15,2.7787
16,B16,2.7135
17,B17,3.5533
18,B18,3.75
19,B19,2.9618
20,B20,3.7382

row,Molecule,Log2 (fold change)
1,B21,3.0477
2,B22,3.238
3,B23,3.5545
4,B24,2.9317
5,B25,2.8605
6,B26,2.5324
7,B27,3.2985
8,B28,2.507
9,B29,2.7725
10,B30,2.5274
11,B31,3.5291
12,B32,4.0258
13,B33,2.3058
14,B34,3.2024
15,B35,2.7025
16,B36,2.2642
17,B37,4.8639
18,B38,3.529
19,B39,3.0094
